± gives the standard deviation of the averaged measurements. The list shows a part of the results.
System: PfAP2-I AP2 domain 3 (GST-tagged)
Assay: gcPBM binding intensity (ln(normalized median fluorescence intensity)); higher = stronger DNA binding
How it was run: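 GST-tagged P. falciparum DNA-binding domains produced in E. coli were incubated for 1 h on an Agilent 4 × 180k array of primer-extended double-stranded 36-bp intergenic genomic probes with negative controls. Binding intensity is the highest Masliner-normalised natural-log median intensity across replicate spots of either probe orientation, with bound protein detected by Alexa488 anti-GST antibody at 488 nm.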

Row | Sequence | gcPBM binding intensity (ln)
1 | ATTATTACATTTTTATGTACATATCAAATTTATACA [XGTACX_site7332] | 7.92 ± 0.35
2 | TTAACTTAAGGAGAGTGTACAAATAATAAAATATCT [XGTACX_site4118] | 7.93 ± 0.74
3 | AAAAAAAATTTATGGGGTACATATTATAATATTATA [XGTACX_site3395] | 8.02 ± 0.54
4 | TTATATAACATTATTTGTACATATAAAATATGGATG [XGTACX_site8526] | 7.6 ± 0.4
5 | ATGTATGAATTACATAGTACATAAGAAAAAATGAAG [XGTACX_site5942] | 8.16 ± 0.47
6 | GTTTTCATCCAAAAAAGTACATTTATTTTTATACGA [XGTACX_site1039] | 8.03 ± 0.4
7 | GTAGTGGTTGAATATACACACATATATAAATAAATA [CACACA_site7282] | 7.87 ± 0.47
8 | AAATATAAAGTGCACACACACAAAAAAAGAAAAAAA [CACACA_site6452] | 10.2 ± 0.36
9 | GGAAAATCTTTATAATGTACATTATGATTATATAAT [XGTACX_site6256] | 7.68 ± 0.49
10 | ATTCATAATTTATTATGTACATATATATAATATATT [XGTACX_site1711] | 7.64 ± 0.28
11 | AAATAACAAATTTTTAAAATGTATATATATATATAT [TGCATGCA_negctrl_site219] | 9.32 ± 0.18
12 | ATATCATGTTAAGATTGTACATATATATAATATATA [XGTACX_site7626] | 7.64 ± 0.31
13 | AATAAATTGGTATGTTGTACAAAGTAACCATCGATT [XGTACX_site2823] | 7.63 ± 0.57
14 | AAGGATATAACATACACACACACACCCATATATATA [CACACA_site4142] | 8.38 ± 0.71
15 | AAAGAAATTATTTGTTGTACATATGTTATTTTTTTT [XGTACX_site7570] | 7.75 ± 0.25
16 | TGCAATTTAATATGAGTGCATATATTGAGAAAATAC | 10.04 ± 0.035
17 | TAAAACCTTTAAAATACATGCAGCATATATAAGTAA [TGCATGCA_site181] | 7.87 ± 0.74
18 | GGAAAATATGTTTGTGTGCACAGCTAGCTATTTGTA [GTGCAC_site9637] | 9.61 ± 0.33
19 | AAATAAATTGATTCAACACACACATATGTAGGAAGT [CACACA_site9068] | 8.23 ± 0.35
20 | AATTTTTTTTGTCTCTGTACTTATAAAATATATATG [XGTACX_site4742] | 7.86 ± 0.64
21 | TTTTTTTTTTTCAAGCGTACAAAAAATATATTTAAA [XGTACX_site5327] | 7.87 ± 0.54
22 | CACCCACACCAACACACACACATATATATATATATA [CACACA_site362] | 9.86 ± 0.17
23 | TATATATGGGTAACCTTTTTTTTTTTTTTTCGAACA [CACACA_negctrl_site1303] | 7.33 ± 0.52

Row | Sequence | gcPBM binding intensity (ln)
24 | AAAAAAAATTTTAATTGTACAAAAAAAAAAAATATA [XGTACX_site2259] | 7.64 ± 0.55
25 | CATATGGCAATAATTACATGCAAAAAAAAAAAAAAA [TGCATGCA_site578] | 7.97 ± 0.61
26 | AATGTAAAAGTAAACACACACATATATTTATACATA [CACACA_site7218] | 7.58 ± 0.59
27 | AGCCATATCTTTTTTGCACACACTACAATAAAACAA [CACACA_site1650] | 9.72 ± 0.17
28 | ACATTTAATGTTATATGTACATAATATTATAAGTAT [XGTACX_site1393] | 8.03 ± 0.47
29 | GTAAATCGACACATACGTACATACATTTATATATAT [XGTACX_site3143] | 8.36 ± 0.61
30 | AAAAAAAAGAAAAACACACACATATATATATATAAT [CACACA_site4707] | 7.63 ± 0.4
31 | ACAGACGTTCAAAGGTGTACGCAAAATGAATAATAT [XGTACX_site7565] | 8.46 ± 0.4
32 | TTCTTATTTAATGTATCACACACGAGAATAAAAAAT [CACACA_site8992] | 7.98 ± 0.48
33 | ATATGTATAAGTATGTATATTTATTTATACTTATGT [GTGCAC_negctrl_site221] | 7.64 ± 0.38
34 | TTAATTAAAACGAATACACACATAAATATGTAAAAG [CACACA_site6707] | 7.69 ± 0.59
35 | TATATATATATATAATGTACTTATATTTTTTTGAGG [XGTACX_site2638] | 9.62 ± 0.25
36 | AAAAAAAAAAAAAAAAGTACATATATATATTTATAT [XGTACX_site5893] | 8.31 ± 0.48
37 | TTATATTTATAAAATTGTATACCCCTTCTAACTTTC [CACACA_negctrl_site250] | 7.68 ± 0.38
38 | ATTGTGCTCATCAGCACACACAACATCATGTAATAA [CACACA_site1863] | 8.71 ± 0.42
39 | TATATATATGGTTTAACACACGAGATAAAAGTATAT [CACACA_site2867] | 8.27 ± 0.77
40 | TTTTAAATTTAATTTACACACTTTTCATAGCATTGA [CACACA_site3794] | 7.8 ± 0.54
41 | TTCTATTCACATTTTACACACGTCCATCGCATTTTA [CACACA_site3453] | 8.29 ± 1
42 | TATATGGTATGTATTACACACATATCACATATAGAT [CACACA_site7426] | 7.53 ± 0.42
43 | TATAAATACGAACACACACACCTTATAATTACTACT [CACACA_site7827] | 7.79 ± 0.54
44 | TTATATTTAGTATATGCACACTTTATGTTTGTTATT [CACACA_site5163] | 9.29 ± 0.21
45 | AAAAACCATTGGCACACACACATAATATATAATATA [CACACA_site4903] | 8.26 ± 0.49
46 | AAGAAAGGTTAAACATGTACATAAATATTTTACATA [XGTACX_site5024] | 7.79 ± 0.42

Row | Sequence | gcPBM binding intensity (ln)
47 | TCATTGAAAATTGTTGCACACATAATAATTAAATAT [CACACA_site8554] | 8.94 ± 0.16
48 | ACACATATGTCTTCATGTACATAATATATAAATCTT [XGTACX_site3438] | 8.12 ± 0.36
49 | CATAAATCAGCCATAACACACATACATATATACATA [CACACA_site8025] | 7.64 ± 0.52
50 | TATCTTTTTATTTTTTATTTTTTTTTTATAATTTAC [XGTACX_negctrl_site414] | 7.41 ± 0.57
51 | TATATATATACAGTTGCATGTTGTGTTTAAAATTTT [TGCATGCA_site816] | 9.06 ± 0.26
52 | TGTTAAAAAATGGATGCACACATTAAATAAAAAGTA [CACACA_site1660] | 9.11 ± 0.79
53 | TAAAGGTAGATATATTGTACATACACACCTATATAA [XGTACX_site6865] | 7.63 ± 0.51
54 | TCTTGTTTATCAACAGCACACACAACAACAACAACA [CACACA_site8046] | 8.84 ± 0.66
55 | ACATTATATTTGGACTGTACTAATATATTGTTATAT [XGTACX_site5573] | 7.83 ± 0.36
56 | ATATATATATATATATGTACATATTGTATCTTATAC [XGTACX_site5466] | 9.29 ± 0.47
57 | TATACATATATATATTGTACATATTATATATATATA [XGTACX_site3286] | 8.91 ± 0.21
58 | AGAAGAAAACAAAACACACACATATATCTTAATATA [CACACA_site2231] | 7.62 ± 0.5
59 | AAAAAAAAAAACTTTGCATGTAATAATAAAAAAAAA [TGCATGCA_site81] | 7.74 ± 0.93
60 | TGGTGAAAAATATAAATATAAATAAATATATATATA [CACACA_negctrl_site1725] | 8.86 ± 0.54
61 | ATGATCTGTTTGTTTGTGCACATATATATATATTAA | 10.5 ± 0.21
62 | AAATAAATTGAAGATACATGCATATTTTTTTTTTAT [TGCATGCA_site686] | 7.35 ± 0.73
63 | TTTATATTTTTTTTTGCACACTTTAAAAAAATATAT [CACACA_site1146] | 10.06 ± 0.064
64 | TATATATTACATAAAACACACAAAAAAAAAATTAAA [CACACA_site3882] | 7.67 ± 0.45
65 | ATGTAGAGTAATAGTTGTACAAGGTGTATATCTCAT [XGTACX_site6370] | 8.21 ± 0.87
66 | AATTAAATGTTTCTAAGATATACGACCAATGTATTT [CACACA_negctrl_site1694] | 7.46 ± 0.53
67 | AATTAATGGGTACATACACACATATATACATACATA [CACACA_site742] | 8 ± 0.25
68 | TGTATTATCTCTTATGAACACACATTTTTATTTTCA [CACACA_site9107] | 7.81 ± 0.68
69 | ATGTTAATTAATGAGGTGCATTGAATATTTCAATAA | 10.9 ± 0.73

Row | Sequence | gcPBM binding intensity (ln)
70 | CATCAATGCTAATTATGTACTTACATAAATAACCCT [XGTACX_site968] | 7.73 ± 0.51
71 | ATACCTAAAAAATATACACACATATATATAAATATA [CACACA_site2580] | 7.75 ± 0.44
72 | ATATTAATGATATATACACACATAAGTATTGTATAT [CACACA_site7844] | 7.56 ± 0.23
73 | AAATGTAATTTGTCTTTTATTTATATTTGACATGAT [TGCATGCA_negctrl_site520] | 7.49 ± 0.24
74 | TTTTTTTTTTTTTTTTTTTTTTTGCTCAGTGTGGTA [CACACA_negctrl_site29] | 8.16 ± 0.62
75 | TTGATGGGAAAAAACTTTTTTTTCTTTTTTTCTTTC [CACACA_negctrl_site328] | 7.23 ± 0.76
76 | TATCACCCACCATGAAGTACATATTACCATTTGATG [XGTACX_site845] | 7.95 ± 0.52
77 | ATAAATAAATAAAAGCGTACATATATATAAAATATA [XGTACX_site8107] | 7.93 ± 0.16
78 | AAAAGGAAGATATATACACACATACAAATATTTATA [CACACA_site7093] | 7.68 ± 0.52
79 | TTATACTAAATGAACACACACACATATATATATATA [CACACA_site99] | 9.49 ± 0.53
80 | AGAGTTAAACGATATATATAAATATATATATATATA [GTGCAC_negctrl_site316] | 9.17 ± 0.4
81 | AAAAAAAAAAACGACAGTACAATTATAATTTATATT [XGTACX_site2365] | 7.59 ± 0.75
82 | ATGTCTTAAAAATTAAAACACACGTTCACTTTCATA [CACACA_site3385] | 7.92 ± 0.59
83 | AGATCATAATATTATACACACATTAGATATAGGTAA [CACACA_site6809] | 7.75 ± 0.55
84 | TATATAATACGAATTTGTACATATTAAATAAATTAT [XGTACX_site93] | 7.56 ± 0.41
85 | GTTAGTTTTAGTTCATGTACATAATAGAAAATATAT [XGTACX_site7125] | 8.15 ± 0.3
86 | AAGGTATGATTAATCACACACATAAATATAAATACA [CACACA_site5464] | 7.61 ± 0.71
87 | AAGCTTCATTAATATACACACATATATGTGTATATT [CACACA_site7693] | 7.54 ± 0.54
88 | ATAAAATATAGGTATGCACACACATATACTTCTGTG [CACACA_site8398] | 8.06 ± 0.61
89 | AATAAAGAAGAAGAAAGTACACATTTCACAAAGGGG [XGTACX_site1308] | 8.23 ± 0.21
